# From patent publication US4115541A (priority 1975, dated 1978)
# Read-outs that look alike come from different tables or passages of the source. Further values from the same series stand in other lists.
# How the values were obtained:
# [1] = Localization in callous of three week-old tibial fractures in rabbits (Example 2); format: in vivo, albino rabbit; conditions: rabbits i.v.
# Description: (§1) Adult New Zealand albino rabbits having an average weight of 3.8 kg were utilized. Strontium-85 was employed as a standard for comparison. […] Each dosage is contained in a volume of 1 ml.
# The animals were sacrificed serially from 1 to 24 hours after injection and the activities in major organs were determined by counting multiple samples from each organ in a scintillation well counter (the technetium-99m counts were corrected for the Compton contributions from the strontium-85 activity in the technetium-99m energy window). Multiple samples were counted from the tibia, femur, spine and pelvic bones; the total activity in the skeleton was estimated by assuming the whole skeleton consisted of equal proportions by weight of tibia, spine, femur and pelvis and that the skeletal mass was 10% of the body weight. […] The whole liver and both kidneys were weighed and multiple samples from each were counted to measure the total activity in each organ.
# In another series of experiments carried out as described above, localization of technetium from its tin-phosphonate complex was determined in the callous of three week-old fractures of tibia in albino rabbits, again in comparison with strontium-85. Comparative radioassay of technetium-99m administered as the pertechnetate was measured in the callous of tibial fractures in rabbits at one and four hours after administration.
# [2] = Distribution of 99mTc-Sn-AEDP and 85Sr in rabbits, carrier effect of AEDP (Example 4); format: in vivo, rabbit; conditions: 2 Hrs.
# Description: as §1
# The animals were sacrificed serially from 1 to 24 hours after injection and the activities in major organs were determined by counting multiple samples from each organ in a scintillation well counter (the technetium-99m counts were corrected for the Compton contributions from the strontium-85 activity in the technetium-99m energy window). Multiple samples were counted from the tibia, femur, spine and pelvic bones; the total activity in the skeleton was estimated by assuming the whole skeleton consisted of equal proportions by weight of tibia, spine, femur and pelvis and that the skeletal mass was 10% of the body weight. The red marrow was sampled from the femur and the total marrow was assumed to be 2.2% of the total body weight. Similarly, blood volume was assumed to be 7% and the skeletal muscle 43% of the body weight. The whole liver and both kidneys were weighed and multiple samples from each were counted to measure the total activity in each organ.
# In another series of experiments carried out as described in Example 2, the distribution of technetium 99m from its 99m-technetium-tin-methylene diphosphonate complex was determined in albino rabbits, again in comparison with strontium-85.
# The distribution of technetium 99m from its 99m technetium-tin-1-amino-ethane-1,1-diphosphonate complex was determined as in Example 3 and compared with the distribution of strontium-85.
# [3] = rabbits, 2 Hrs.
compound,measurement,setting,value
"[85Sr+2].[Cl-].[Cl-] [^85 Sr, 85Sr chloride]","Callus, % dose/1% body weight",[1]; 1 Hr.,31.2 % dose/1% body weight
same,"Callus, % dose/1% body weight",[1]; 4 Hrs,37.7 % dose/1% body weight
same,"Blood, % Dose/1% Body weight",[2]; AEDP 0.01 mg/kg,0.427 % Dose/1% Body weight
same,"Bone Ave, % Dose/1% Body weight",[2]; AEDP 0.01 mg/kg,10.33 % Dose/1% Body weight
same,"Femur, % Dose/1% Body weight",[2]; AEDP 0.01 mg/kg,10.38 % Dose/1% Body weight
same,"Kidneys, % Dose/1% Body weight",[2]; AEDP 0.01 mg/kg,0.567 % Dose/1% Body weight
same,"Liver, % Dose/1% Body weight",[2]; AEDP 0.01 mg/kg,0.177 % Dose/1% Body weight
same,"Marrow, % Dose/1% Body weight",[2]; AEDP 0.01 mg/kg,0.211 % Dose/1% Body weight
same,"Muscle, % Dose/1% Body weight",[2]; AEDP 0.01 mg/kg,0.116 % Dose/1% Body weight
same,"Pelvis, % Dose/1% Body weight",[2]; AEDP 0.01 mg/kg,10.66 % Dose/1% Body weight
same,"Spine, % Dose/1% Body weight",[2]; AEDP 0.01 mg/kg,8.98 % Dose/1% Body weight
same,"Tibia, % Dose/1% Body weight",[2]; AEDP 0.01 mg/kg,11.28 % Dose/1% Body weight
same,"Blood, % Dose/1% Body weight",[2]; AEDP 0.05 mg/kg,0.357 % Dose/1% Body weight
same,"Bone Ave, % Dose/1% Body weight",[2]; AEDP 0.05 mg/kg,12.34 % Dose/1% Body weight
same,"Femur, % Dose/1% Body weight",[2]; AEDP 0.05 mg/kg,12.62 % Dose/1% Body weight
same,"Kidneys, % Dose/1% Body weight",[2]; AEDP 0.05 mg/kg,0.551 % Dose/1% Body weight
same,"Liver, % Dose/1% Body weight",[2]; AEDP 0.05 mg/kg,0.134 % Dose/1% Body weight
same,"Marrow, % Dose/1% Body weight",[2]; AEDP 0.05 mg/kg,0.221 % Dose/1% Body weight
same,"Muscle, % Dose/1% Body weight",[2]; AEDP 0.05 mg/kg,0.118 % Dose/1% Body weight
same,"Pelvis, % Dose/1% Body weight",[2]; AEDP 0.05 mg/kg,11.44 % Dose/1% Body weight
same,"Spine, % Dose/1% Body weight",[2]; AEDP 0.05 mg/kg,11.60 % Dose/1% Body weight
same,"Tibia, % Dose/1% Body weight",[2]; AEDP 0.05 mg/kg,13.69 % Dose/1% Body weight
same,"Blood, % Dose/1% Body weight",[2]; AEDP 0.1 mg/kg,0.354 % Dose/1% Body weight
same,"Bone Ave, % Dose/1% Body weight",[2]; AEDP 0.1 mg/kg,10.48 % Dose/1% Body weight
same,"Femur, % Dose/1% Body weight",[2]; AEDP 0.1 mg/kg,10.97 % Dose/1% Body weight
same,"Kidneys, % Dose/1% Body weight",[2]; AEDP 0.1 mg/kg,0.441 % Dose/1% Body weight
same,"Liver, % Dose/1% Body weight",[2]; AEDP 0.1 mg/kg,0.182 % Dose/1% Body weight
same,"Marrow, % Dose/1% Body weight",[2]; AEDP 0.1 mg/kg,0.166 % Dose/1% Body weight
same,"Muscle, % Dose/1% Body weight",[2]; AEDP 0.1 mg/kg,0.136 % Dose/1% Body weight
same,"Pelvis, % Dose/1% Body weight",[2]; AEDP 0.1 mg/kg,8.66 % Dose/1% Body weight
same,"Spine, % Dose/1% Body weight",[2]; AEDP 0.1 mg/kg,10.56 % Dose/1% Body weight
same,"Tibia, % Dose/1% Body weight",[2]; AEDP 0.1 mg/kg,11.71 % Dose/1% Body weight
same,"Blood, % Dose/1% Body weight",[2]; AEDP 0.5 mg/kg,0.624 % Dose/1% Body weight
same,"Bone Ave, % Dose/1% Body weight",[2]; AEDP 0.5 mg/kg,10.78 % Dose/1% Body weight
same,"Femur, % Dose/1% Body weight",[2]; AEDP 0.5 mg/kg,10.43 % Dose/1% Body weight
same,"Kidneys, % Dose/1% Body weight",[2]; AEDP 0.5 mg/kg,0.924 % Dose/1% Body weight
same,"Liver, % Dose/1% Body weight",[2]; AEDP 0.5 mg/kg,0.270 % Dose/1% Body weight
same,"Marrow, % Dose/1% Body weight",[2]; AEDP 0.5 mg/kg,0.207 % Dose/1% Body weight
same,"Muscle, % Dose/1% Body weight",[2]; AEDP 0.5 mg/kg,0.151 % Dose/1% Body weight
same,"Pelvis, % Dose/1% Body weight",[2]; AEDP 0.5 mg/kg,11.42 % Dose/1% Body weight
same,"Spine, % Dose/1% Body weight",[2]; AEDP 0.5 mg/kg,9.87 % Dose/1% Body weight
same,"Tibia, % Dose/1% Body weight",[2]; AEDP 0.5 mg/kg,11.37 % Dose/1% Body weight
"tin-1-hydroxy-ethane-1,1-diphosphonate [^99m Tc-EHDP]","Ave Bone, % Dose/1%-body weight",[3]; EHDP 0.01 mg/kg,7.36 % Dose/1%-body weight
same,"Muscle, % Dose/1%-body weight",[3]; EHDP 0.01 mg/kg,0.018 % Dose/1%-body weight
same,"Pelvis, % Dose/1%-body weight",[3]; EHDP 0.01 mg/kg,7.57 % Dose/1%-body weight
same,"Spine, % Dose/1%-body weight",[3]; EHDP 0.01 mg/kg,6.17 % Dose/1%-body weight
same,"Ave Bone, % Dose/1%-body weight",[3]; EHDP 0.05 mg/kg,7.96 % Dose/1%-body weight
same,"Muscle, % Dose/1%-body weight",[3]; EHDP 0.05 mg/kg,0.031 % Dose/1%-body weight
same,"Pelvis, % Dose/1%-body weight",[3]; EHDP 0.05 mg/kg,8.25 % Dose/1%-body weight
same,"Spine, % Dose/1%-body weight",[3]; EHDP 0.05 mg/kg,6.51 % Dose/1%-body weight
same,"Ave Bone, % Dose/1%-body weight",[3]; EHDP 0.1 mg/kg,9.73 % Dose/1%-body weight
same,"Muscle, % Dose/1%-body weight",[3]; EHDP 0.1 mg/kg,0.023 % Dose/1%-body weight
same,"Pelvis, % Dose/1%-body weight",[3]; EHDP 0.1 mg/kg,12.10 % Dose/1%-body weight
same,"Spine, % Dose/1%-body weight",[3]; EHDP 0.1 mg/kg,8.18 % Dose/1%-body weight
same,"Ave Bone, % Dose/1%-body weight",[3]; EHDP 0.5 mg/kg,6.60 % Dose/1%-body weight
same,"Muscle, % Dose/1%-body weight",[3]; EHDP 0.5 mg/kg,0.028 % Dose/1%-body weight
same,"Pelvis, % Dose/1%-body weight",[3]; EHDP 0.5 mg/kg,7.38 % Dose/1%-body weight
same,"Spine, % Dose/1%-body weight",[3]; EHDP 0.5 mg/kg,5.885 % Dose/1%-body weight
same,"Tibia, % Dose/1%-body weight",[3]; EHDP 0.5 mg/kg,6.639 % Dose/1%-body weight
